Measured values published in PubChem BioAssay AID485297 (National Center for Advancing Translational Sciences (NCATS), 2010).
Screen size: about 320,000 compounds; about 9,100 (2.8%) were called active. The shares of active, inactive and inconclusive entries below differ from those in the screen. Calls follow the shape of the dose curve; as a rule, active = well fitted activation curve with a large enough effect; inconclusive = small, poorly fitted or top-dose-only effect; inactive = no such curve, though single readings can be large or run the other way. Potencies of inconclusive entries are left out as doubtful fits.

Experiment: qHTS Assay for Rab9 Promoter Activators; also: nearly all actives have a fitted effect of over 60% in size
Settings: Huh7 Rab9 promoter-luciferase reporter, luminescence, 24 h; series mostly up to 9.22 µM
In short: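 Luminescence read-out: Huh7 cells stably expressing Rab9-luciferase, treated 24 h with compound at 37 °C, then lysed with luciferase reagent for 10 min at ambient before reading.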
Potency is read from the fitted curve at half-maximal effect; tags tell the direction and shape of the fitted curve.

| Compound | Potency |
| --- | --- |
| COc1ccc(NC(=O)CSc2nnc(-c3ccc(F)cc3)o2)cn1 | inconclusive [activator, partial curve] |
| C/C(=N\NC(=O)C(N)=O)c1ccc(NC(=O)c2cccs2)cc1 | inconclusive [activator, partial curve] |
| Cc1c(O)nc(SCC(=O)Nc2ccc3c4c(cccc24)CC3)n(-c2ccc(F)cc2)c1=O | inactive |
| CCCCC(=O)NC(c1ccccc1)c1ccc2cccnc2c1O (stereo unspecified) | inactive |
| CN(C(=O)c1ccc2c(c1)OCO2)C1CCCCC1 | inconclusive [activator, partial curve] |
| O=C(Cn1cc2c(n1)CCCCC2)NC1CCCCCC1 | inconclusive [activator, partial curve] |
| OCCN=c1cc(-c2ccccc2)oc2ccc(Cl)cc12 | inconclusive [activator, single point] |
| Cc1cc(C)cc(N=c2c([N+](=O)[O-])nn(-c3ccc4c(c3)OCCO4)n2O)c1 | inactive |
| O=C(Nc1ccc(CN2CCOCC2)cc1)c1cc2ccccn2n1 | active: 0.447 µM |
| CCOC(=O)C1CCN(C(=O)c2ccc3c(Cl)c4c(nc3c2)CCCC4)CC1 | inconclusive [activator, partial curve] |
| CCN1C(=O)C(=O)N(CC(=O)c2cc(C)n(C3CC3)c2C)C1=O | inconclusive [activator, partial curve] |
| COc1c(O)cc2oc(-c3ccc(O)cc3)cc(=O)c2c1O | inconclusive [activator, single point] |
| COc1ccc([C@H]2CC(=O)C=C(c3ccc(Cl)c(F)c3)C2)cc1 | inactive |
| O=C(CSc1nnc(-c2ccc(F)cc2)o1)N1CCCC1 | inconclusive [activator, single point] |
| Cn1c(O)c(N=NC(=O)c2ccccc2O)c2ccccc21 | inconclusive [activator, single point] |
| CCCOc1ccc(C(=O)Nc2ccc(CN3CCOCC3)cc2)cc1 | inactive |
| NC(=O)Cn1nnc(-c2ccc(NC(=O)c3ccc(F)cc3)cc2)n1 | inconclusive [activator, partial curve] |
| N/C(=N\OC(=O)/C=C/c1ccccc1)c1ccc(Cl)cc1 | inactive |
| Cc1cccc(C(=O)NNC(=O)c2ccccc2O)c1 | inconclusive [activator, partial curve] |
| COC(=O)c1ccc(N=NN2CCCCC2)cc1 | active: 2.24 µM |
| Oc1ccc(-c2csc(-c3cccnc3)n2)c(O)c1 | inconclusive [activator, single point] |
| CNC(=O)COc1coc(CN2CCN(c3ccccc3OC)CC2)cc1=O | inactive |
| O=C(O)c1ccc(-c2nc(-c3ccc(Cl)c(Cl)c3)cs2)cc1 | inconclusive [activator, partial curve] |
| Cc1nc2sccn2c1-c1nc(-c2cc3ccccc3o2)cs1 | inactive |
| NC(=O)[C@@H]1CCCN1C(=O)c1ccc2oc(CCc3ccccc3)nc2c1 | inconclusive [activator, partial curve] |
| CCOc1ccc(N=C(/C(C(=O)C(=O)N2CCOCC2)=C(/O)c2ccccc2)c2ccccc2)cc1 | inconclusive [activator, partial curve] |

| Compound | Potency |
| --- | --- |
| CCOC(=O)c1ccccc1NC(=O)c1cc2ccccc2o1 | inconclusive [activator, single point] |
| COc1ccc(/C=C/c2nc3ccccc3n2C)cc1 | inconclusive [activator, partial curve] |
| CC(C)C(=O)Nc1nc(-c2ccc3c(c2)CCN3C(=O)C2CC2)cs1 | inconclusive [activator, single point] |
| S=C(NCc1ccccn1)Nc1ccc(Cl)cc1Cl | inconclusive [activator, single point] |
| CCOC(=O)c1sc2nc3c(cc2c1N)COC(C(C)C)C3 (stereo unspecified) | inconclusive [activator, single point] |
| CCn1cnc2c(cnn2-c2ccccc2)c1=O | inconclusive [activator, partial curve] |
| CCCOc1cccc(C(=O)Nc2ccc3c(c2)OCCO3)c1 | inconclusive [activator, single point] |
| CC1CCC(NC(=O)Nc2cccs2)CC1 (stereo unspecified) | inconclusive [activator, partial curve] |
| COCC(C)OC(=O)c1c(N)n(CC(C)C)c2nc3ccccc3nc12 (stereo unspecified) | inactive |
| NC(=O)COc1ccc(C23CC4CC(CC(C4)C2)C3)cc1 | inconclusive [activator, partial curve] |
| CN(Cc1ccccc1)C(=O)c1nn2cccnc2c1Cl | inactive |
| O=C(CSc1ccc(-c2ccco2)nn1)c1ccc(F)cc1 | inconclusive [activator, single point] |
| Cc1ccc(NC(=O)COC(=O)CN2C(=O)NC(C)(C)C2=O)cc1S(=O)(=O)N1CCOCC1 | inconclusive [activator, single point] |
| Cc1ccc(Nc2nc(N)nc(CSC(=S)N3CCOCC3)n2)cc1 | inconclusive [activator, partial curve] |
| Cc1cc(C)c(S(=O)(=O)N2CCN(C(=O)c3cc4ccccc4oc3=O)CC2)c(C)c1 | inactive |
| O=C(Nc1ccc2c(c1)OCCO2)C1CCCN(c2ncccn2)C1 (stereo unspecified) | active: 0.316 µM |
| COc1cccc(C(=O)CSc2nccn2C)c1 | active: 2.51 µM |
| Cc1cccc(NC(=O)c2c(C)nc3ccccn23)c1 | inconclusive [activator, single point] |
| CCOC(=O)c1cnc2c(-c3cccc(Br)c3)cnn2c1C | active: 3.55 µM |
| O=C(Nc1ccc2c(c1)OCO2)c1ccc([N+](=O)[O-])cc1[N+](=O)[O-] | inconclusive [activator, single point] |
| COc1cc(O)c(CCC(=O)c2ccc(OC)c(OC)c2)c(OC)c1 | inactive |
| N#Cc1cnc2nc(SCc3ccccc3)nn2c1 | inconclusive [activator, partial curve] |
| CC(O)Cn1c(=O)c2c(nc(Br)n2Cc2ccccc2)n(C)c1=O (stereo unspecified) | inconclusive [activator, single point] |
| Cc1c(C(=O)N(C)c2ccc(Cl)cc2)cnn1-c1ccccc1 | inconclusive [activator, partial curve, poor fit] |
| CN(c1nc(-c2ccc(Br)cc2)cs1)C1CCS(=O)(=O)C1 (stereo unspecified) | inconclusive [activator, partial curve] |
| CN1CCN(c2ccc(-c3ccnn3C(=O)Nc3ccccc3)cc2)CC1 | active: 3.55 µM |

| Compound | Potency |
| --- | --- |
| CN(CCCC1CCCC1)C(=O)CCc1nnc(-c2ccccc2)o1 | active: 2.51 µM |
| S=C(NCCc1ccccc1)N1CCCCC1 | active: 3.16 µM |
| COCCCNC(=O)COC(=O)c1ccc(-c2nc3ccccc3s2)s1 | inconclusive [activator, partial curve] |
| Nc1sccc1C(=O)c1ccc(Cl)cc1 | inconclusive [activator, single point] |
| CC(C)(C)c1ccc(C(=O)N2CCC(C(=O)NC3CCCCCC3)CC2)cc1 | inconclusive [activator, single point] |
| Cc1ccnc(Cc2ccccc2)n1 | inactive |
| CC(/C=N/Nc1nnc2c(n1)[nH]c1ccccc12)=C\c1ccco1 | inconclusive [activator, single point] |
| Cc1cc2n(n1)SC(Nc1cccc3ccccc13)N2 (stereo unspecified) | inconclusive [activator, single point] |
| Cc1ccc(-n2nc3cc(C)c(N)cc3n2)cc1 | active: 1.12 µM |
| C=C(C)CNC(=O)c1ccc2nc(Cc3ccc(OC)cc3)oc2c1 | active: 2.82 µM |
| CNC(=O)c1[nH]nc2c1CCc1cc(OC)ccc1-2 | active: 5.01 µM |
| COC(=O)c1ccc(NC(=O)CSc2nnc(-c3ccccc3)n2C)cc1 | inconclusive [activator, single point] |
| O=C1NC(=S)N/C1=C/C=C/c1ccccc1 | inconclusive [activator, single point] |
| CCc1ccc(C(=O)Nc2nc3ccccc3[nH]2)cc1 | inconclusive [activator, full curve, poor fit] |
| O=C(c1ccccc1)c1ccc(N2CCOCC2)c(F)c1 | active: 3.55 µM |
| Cc1cccc(NC(=O)/C(C#N)=C/c2ccccc2O)n1 | active: 3.98 µM |
| Clc1ccc(-c2cn3cccnc3n2)cc1 | inconclusive [activator, partial curve] |
| O=C(NC(=S)Nc1ccccc1O)c1ccc(Cl)cc1Cl | inconclusive [activator, partial curve] |
| COc1ccc(Cl)cc1C(=O)NNC(=O)c1csc(N2CCOCC2)n1 | inactive |
| Cc1cccc(NC(=O)c2ccc3ccccc3n2)c1C | inconclusive [activator, full curve] |
| Cc1nc(N2CCOCC2)c(C#N)c(C)c1Br | inactive |
| O=C(Nc1nc2c(s1)CCc1ccccc1-2)c1ccco1 | inconclusive [activator, partial curve] |
| CSc1nnc(-c2ccc(Cl)cc2Cl)o1 | inconclusive [activator, partial curve] |
| CC1CC(C)CN(C(=O)c2ccc(-c3ccc([N+](=O)[O-])cc3)o2)C1 (stereo unspecified) | inconclusive [activator, single point] |
